Source: a compilation of properties of binary mixtures (doi:10.1016/j.colsurfa.2018.02.014)
Some of these densities may be calculated back from excess volumes.

Test: xn = mol fraction of the nth substance listed
Settings: 100 kPa

CCCCCCCC[n+]1ccn(C)c1.O=C([O-])[C@@H]1CCCN1 + O
mass density [kg/m3]
Settings | 293.15 K | 298.15 K | 303.15 K | 308.15 K | 313.15 K | 318.15 K
x1 = 0.012 | 1015.5 | 1013.2 | 1011.2 | – | 1004.6 | 1001.3
x1 = 0.0196 | 1023.1 | 1021 | 1018.8 | 1016.2 | 1012.4 | –
x2 = 0.3768 | 1060.4 | – | 1053.9 | 1050.7 | 1047.4 | 1043.6
x2 = 0.5821 | 1066.5 | 1063.1 | 1059.8 | – | 1053.1 | 1049.4
x2 = 0.7123 | 1070.8 | 1066.7 | – | – | – | 1052.1
x2 = 0.8111 | 1070.7 | 1067.1 | 1063.4 | 1059.8 | 1056.1 | 1052.9
x2 = 0.8773 | 1062.9 | 1059.6 | 1055.6 | 1053 | 1049.8 | 1046.5
x2 = 0.9032 | 1057.6 | – | 1050.7 | 1048.1 | 1044.7 | 1041.6
x2 = 0.9331 | – | 1046.7 | 1042.9 | 1040.1 | 1036.6 | 1033.6
x2 = 0.9524 | – | 1038.4 | – | 1032.6 | – | 1026.1
x2 = 0.9664 | 1034.1 | 1031.4 | 1028.7 | 1025.9 | 1022.7 | 1018.8

CCCC[n+]1ccn(C)c1.O=C([O-])[C@@H]1CCCN1 + O
mass density [kg/m3]
Settings | 293.15 K | 298.15 K | 303.15 K | 308.15 K | 313.15 K | 318.15 K
x1 = 0.0081 | 1013.8 | 1010.8 | – | 1005.9 | – | 1000.7
x1 = 0.0116 | 1020.1 | 1017.2 | 1014.1 | 1011.6 | 1008.1 | 1005.4
x1 = 0.0162 | 1027.5 | 1024.4 | 1021.8 | 1019 | 1015.1 | 1012.4
x2 = 0.6418 | 1114.8 | 1110.3 | 1106.6 | 1103.2 | – | 1097.2
x2 = 0.7818 | 1114.2 | – | 1107.4 | 1104.2 | 1100.5 | 1096.7
x2 = 0.8628 | 1108.6 | 1105.2 | 1101.5 | 1098.2 | 1094.5 | 1090.8
x2 = 0.9014 | 1097.6 | 1092.5 | 1088.6 | 1086.4 | – | 1078.1
x2 = 0.9293 | 1083 | 1078.7 | 1073.5 | 1071.8 | 1068.6 | 1065.1
x2 = 0.9459 | 1071 | 1066.7 | 1062.9 | – | 1055.9 | 1053.1
x2 = 0.9617 | 1056.5 | – | – | 1047.5 | 1043.1 | 1039.9
x2 = 0.9748 | – | – | 1034.4 | 1032 | 1028.4 | 1025.7
